Read counts are not given, so values of variants with three or more changes are uncertain.

The chains are these.
B1: LINE1-full (parent)
chain: UACGUAGGUGGUUUUCCCCUGAUAGUGCUAAGGGGGCCUGGAAGUUUGGACUGGGCAGAGCUCAACACAGCGUGGCAAAGUGGCUGUGGCUAGACUGCCUCUCUGGAUUCCUCGUCACUCAGCAGGGCAUCUCUGAGAGAAAUGCC

The variants in the data set derive from B1. In words: self-cleavage, relative activity (ratio to wild type); higher = more cleavage; in vitro, sequencing; the parent is a self-cleaving ribozyme.
Turning to U12G C38U U132C, the self-cleavage was 1.07.

In the case of U13C A78U U87C A138G, the self-cleavage was found to be 0.45.

Regarding U13C C38A A107U U115A, the self-cleavage stood at 2.1.

As for U13A G33U A42G, the self-cleavage is 1.43.

Take U12G U39C U73A: the self-cleavage was 1.01.

As for U13C A65G U81A, the self-cleavage was determined as 0.35.

As for U13C C28U U29A, the self-cleavage is 1.41.

U13C C18A A67G A77G A141G: the self-cleavage was 0.44.

As for U13A U62C C113U A141G U143C, the self-cleavage stood at 0.

As for U12G G34C A117U, the self-cleavage is 0.5.

Regarding U13A U134A A141G, the self-cleavage is 0.48.

With U12G U96C U104A A141C, the self-cleavage is 0.

Turning to U13C A43G A136U A140G, the self-cleavage was determined as 0.32.

Turning to U13C C37U G126U, the self-cleavage amounted to 1.15.

Take U13A A124G A141G: the self-cleavage is 1.25.

In the case of U12G A67C A140G A141G, the self-cleavage amounted to 0.27.

As to U13C A42G G60U A140G, the self-cleavage was determined as 0.08.

Regarding U13C A79G A121U, the self-cleavage came out at 1.98.

Take U13A U39A A43G: the self-cleavage stood at 0.06.

On to U12G G27U U46C, for which the self-cleavage stood at 1.15.

With U12G C118U U132C, the self-cleavage was found to be 1.04.

Regarding U13C A31C U52A G86U U102C A136G A140G, the self-cleavage is 0.13.

Take U13A A77G U112C: the self-cleavage was determined as 1.53.

Turning to U13C A65G A94U A117G, the self-cleavage was 0.34.

In the case of U13C A22G U73C A117G, the self-cleavage is 0.

For the variant U13C A69G A92G C116U, the self-cleavage is 0.12.

For the variant U13C A121U U134C, the self-cleavage amounted to 1.53.

With U13C C17A C56U U132C, the self-cleavage worked out at 0.37.

For the variant U12G G25A U73A A77G U87C C146U, the self-cleavage was determined as 0.79.

For U13A U46C G70A, the self-cleavage stood at 0.15.

Consider U12G A22G C71U U100C A107C A117U A136G, for which the self-cleavage is 0.84.

For U12G U45C U52C, the self-cleavage is 1.36.

As for U13C A43G A59G U96C G97A U115C, the self-cleavage was 0.25.

With U13A U15C G58A U96C, the self-cleavage is 0.14.

Turning to U13C A65G U96A A117G, the self-cleavage stood at 0.

Consider U13C A24C A43G U102C C131A A140G U143C, for which the self-cleavage is 0.84.

As to U13A U62A U102A G137C, the self-cleavage worked out at 0.

U13C A65G A67U A138G A142G: the self-cleavage was 0.

For U13C A50U U87A U115G A141G, the self-cleavage worked out at 0.14.

As for U13A A78G A124U A136G, the self-cleavage is 1.21.

In the case of U13C A43G U73A A77G C90G G93U A141G, the self-cleavage was 0.09.

U12G U47C U115A A141G: the self-cleavage is 1.47.

In the case of U13C A24C A129C, the self-cleavage turned out to be 2.3.

U12G A57G A141G: the self-cleavage came out at 0.82.

With U12G U62C A138G, the self-cleavage stood at 0.

U13C A57U A94G C118G: the self-cleavage was found to be 0.

Regarding U13A C28U U102C A140G, the self-cleavage turned out to be 1.28.

On to U12G U81A U115G U132C, for which the self-cleavage came out at 1.99.

Consider U13A C113U A124G, for which the self-cleavage was 0.56.

As to U13C G21A U29C U46A, the self-cleavage amounted to 1.67.

With U13A U45C A77U C146U, the self-cleavage was found to be 0.42.

U13C C17U A92U A136G: the self-cleavage was found to be 0.66.

As for U13A G32C A107G, the self-cleavage worked out at 1.67.

As to U12G G21U A67U C76U U85A, the self-cleavage was 0.07.

For the variant U12G G54A A92U, the self-cleavage came to 0.4.

U13C A24G A129U: the self-cleavage amounted to 1.09.

On to U13C A31G A94G, for which the self-cleavage was 0.62.

Consider U13C A30G A79G A129G, for which the self-cleavage was 0.47.

As to U13C A42U U119C U134C, the self-cleavage came to 1.48.

Consider U13C A31G U108C A142C, for which the self-cleavage turned out to be 0.

With U13C A31U C38U A79G U81A A121G A124U, the self-cleavage was found to be 1.09.

As to U12G A79G U132C, the self-cleavage came to 0.72.

For U13C A124G A140G, the self-cleavage was determined as 0.27.

Turning to U13C A50G G53U A121G, the self-cleavage is 1.31.

As to U13C A24U A50G G126U U134A, the self-cleavage was determined as 0.78.

As to U12G U62C G105U A142U, the self-cleavage stood at 0.1.

As to U12G U13C U52C U115A A141G, the self-cleavage came out at 1.21.

For U12G U47A U109C A142G, the self-cleavage came out at 1.66.

Turning to U13C A57C A138G, the self-cleavage worked out at 0.

Consider U13A G35A U47C U85C U87A, for which the self-cleavage was 0.06.

Regarding U12G U46A U47A U96C A141U, the self-cleavage amounted to 0.43.

For U13A U102A A107G, the self-cleavage was 1.15.

In the case of U13A A30C A117U A141G, the self-cleavage amounted to 1.15.

Take U13A G82A A121U: the self-cleavage worked out at 1.06.

On to U13A A65G A77U, for which the self-cleavage is 0.07.

With U13A U20C A30G U47C U85A U104C, the self-cleavage turned out to be 0.

U13C A42G A140G: the self-cleavage stood at 0.99.

Regarding U12G U14C G40A A136G, the self-cleavage was 1.37.

As for U13C A42G U81C U109A A124G, the self-cleavage came out at 0.

Consider U13A A31U U96C, for which the self-cleavage is 0.04.

On to U13A A43G U62A, for which the self-cleavage stood at 0.08.

As to U12G U14C A78G, the self-cleavage was 0.38.

U13A A67G C71U: the self-cleavage stood at 0.11.

As to U13C A69G G88A, the self-cleavage worked out at 0.11.

The values above are taken from the RNAGym collection of RNA variant scans (doi:10.7554/elife.90254).
